The results in this text go back to ChEMBL document CHEMBL4888484, “Replenishing the malaria drug discovery pipeline: Screening and hit evaluation of the MMV Hit Generation Library 1 (HGL1) against asexual blood stage Plasmodium falciparum ,using a nano luciferase reporter read-out” (2022).

Screen size: about 150,000 compounds; about 540 (0.36%) showed an effect of 50% or more. This is one part of the list.

This assay has as its system Plasmodium falciparum. The assay is described as follows: Primary screen in NF54 nanoGlo assay, in single point, at 2uM, 72h; a lower Z score goes with more inhibition. It counts as functional, Erythrocyte. To be noted: timepoint 72 hour.
On to `COc1ccc2c(c1)C(C(=O)Nc1ccccc1C(O)c1ccccn1)CCC2` (configuration not stated), for which the “% Inhibition” value is -1% and the Z score amounted to 0.14.
Take `O=C1OCCCN1c1ccc(-c2noc(CC3CCOCC3)n2)cc1`: the “% Inhibition” value is on record as -23% and the Z score is reported as 2.96.
On to `O=C1NCCCCC1Oc1ccc(OC(=O)C2C3CCCCC32)cc1` (configuration not stated), for which the “% Inhibition” value is on record as 30% and the Z score is given as -3.34.
On to `Cc1cccc(-c2noc(N3CCOCC3)c2CN(CCN(C)C)C(=O)c2ccco2)c1`, for which the “% Inhibition” value stood at 11% and the Z score is recorded as -1.51.
In the same order, the values of `CC(C)c1nccc(C(=O)N2CCC[C@H](c3[nH]ncc3-c3ccccc3)C2)n1` are 1% and -0.19.
For the compound `CCC1(CNC(=O)Nc2ccc(Oc3ccc(C)nn3)cc2)CC1`, the “% Inhibition” value is on record as -7% and the Z score is given as 0.65.
In the same order, the values of `COc1ccc(CN(C(=O)c2c(C)noc2C)C2CC2)c(OC)c1` are -26% and 3.81.
Turning to `CC(C)n1ccc(C(=O)Nc2ccc(C(=O)N3CCCC[C@@H]3C)cc2)n1`, the “% Inhibition” value is 6% and the Z score is -0.87.
The corresponding values for `Cc1ccc(CNC(=O)N2CC[C@](O)(C3CC3)[C@@H](C)C2)cc1` are 0% and -0.06.
For `CCN(Cc1cncn1CCOC)C[C@H]1CCCO1`, the “% Inhibition” value is reported as 2% and the Z score is -0.39.
In the same order, the values of `COc1ncc(Cl)c(N2CCN([C@H]3CCS(=O)(=O)C3)CC2)n1` are -5% and 0.82.
Consider `COc1ccc(S(=O)(=O)N2C[C@H](C)Oc3c(F)cccc32)cn1`, for which the “% Inhibition” value is given as -11% and the Z score amounted to 1.25.
The corresponding values for `CC(C)n1nccc1S(=O)(=O)N[C@@H](C)c1cccnc1` are 4% and -0.44.
For the compound `COCC(=O)N1CCC[C@H](c2nc(C)nn2CCO)C1`, the “% Inhibition” value is recorded as 16% and the Z score was -2.07.
Take `CC(C)c1nccn1CC(=O)NC(C1CC1)C1CC1`: the “% Inhibition” value turned out to be 1% and the Z score was -0.12.
Regarding `Cc1noc(C)c1C(=O)Cn1ccnc1C(C)C`, the “% Inhibition” value is recorded as -7% and the Z score was found to be 0.57.
As for `CC(=O)N1CCc2sc(S(=O)(=O)NCc3ccc(C)c(C)c3)cc2C1`, the “% Inhibition” value is 9% and the Z score is on record as -1.71.
With `CCOc1ccccc1C(=O)NCc1nc2cccnc2n1C`, the “% Inhibition” value was -18% and the Z score is recorded as 2.64.
On to `CC1CCCC(CC(=O)NC2CCCNC2=O)C1` (configuration not stated), for which the “% Inhibition” value is given as -2% and the Z score was 0.29.
In the same order, the values of `C[C@H](Oc1ccccc1)C(=O)N1CC(Cn2cncn2)C1` are -11% and 1.43.
Take `COCc1cc(N2C[C@H]3CC[C@@H](C2)N(Cc2cscn2)C3=O)ncn1`: the “% Inhibition” value is reported as -15% and the Z score is 2.91.
Regarding `CN(Cc1cn2ccccc2n1)c1ccn(C)n1`, the “% Inhibition” value is -1% and the Z score is listed as 0.14.
In the same order, the values of `COc1nc(NC(C)=O)nc(C)c1Cl` are 32% and -3.67.
With `Cc1ncc2n1CC[C@H](C(=O)Nc1cnn(C3CCCC3)c1)C2`, the “% Inhibition” value was -13% and the Z score is 1.69.
With `Fc1ccc(C2CC(c3ccc4c(c3)OCO4)Nc3ncnn32)cc1` (configuration not stated), the “% Inhibition” value stood at 34% and the Z score is reported as -3.82.
In the case of `CCCCN(C)CC1CCN(C(=O)Nc2nnc(C)s2)CC1`, the “% Inhibition” value came out at 13% and the Z score is recorded as -1.06.
In the same order, the values of `COCCN1C(=O)Cc2ccccc2[C@@H]1C(=O)N1CCN(c2ccccc2F)CC1` are 3% and -0.45.
On to `O=C(CCn1nnc2ccccc2c1=O)N1CCCC[C@H]1c1nc2ccccc2o1`, for which the “% Inhibition” value is -23% and the Z score is 3.06.
`Cc1ccc2c(c1)CCCN2C(=O)c1cn2ccccc2n1`: the “% Inhibition” value was -6% and the Z score is given as 0.84.
Turning to `COc1ccc2cc(-c3nc(CCN(C)C(=O)c4ccoc4)no3)[nH]c2c1`, the “% Inhibition” value is -3% and the Z score is reported as 0.57.
Turning to `O=C1CCc2cc(S(=O)(=O)N3C[C@@H]4CC[C@H]3CN(Cc3ccccc3)C4)ccc2N1`, the “% Inhibition” value is -15% and the Z score was 1.97.
With `CC(C)NC(=O)N(CCc1cccs1)C1CCOCC1`, the “% Inhibition” value was -7% and the Z score was determined as 1.07.
Turning to `COc1nc(-c2cccc(C(=O)N3C[C@@H]4CC[C@H](C3)C(=O)N4)c2)ncc1F`, the “% Inhibition” value is 68% and the Z score is given as -12.2.
The corresponding values for `Cc1cc(CNC(=O)[C@@H]2CCCCc3nn(Cc4cccc(F)c4)c(=O)n32)n(C)n1` are -2% and 0.2.
The corresponding values for `COc1nc2c(cc1CNC(=O)c1ccoc1C)C(=O)N(C1CCCC1)C2` are -12% and 1.51.
Consider `CCn1c(CN2CCC[C@H](C(F)(F)F)C2)nc2cc(S(=O)(=O)N3CCCCC3)ccc21`, for which the “% Inhibition” value is -12% and the Z score is 1.53.
In the same order, the values of `O=C(Nc1ccc(N2CCOCC2)nc1)c1cccnc1` are -12% and 1.3.
The corresponding values for `COc1ccc(CNC(=O)[C@H]2C[C@@H](C(=O)Nc3ccc(F)cc3)CN(Cc3ccc4ccccc4c3)C2)cc1OC` are -10% and 1.19.
In the case of `COc1cnc(NC(=O)N2CCCS(=O)(=O)C[C@H]2C2CC2)s1`, the “% Inhibition” value is 3% and the Z score was -0.59.
For the compound `COc1cc(CN2CCN(CC#Cc3ccccc3)C[C@@H]2CCO)cc(OC)c1`, the “% Inhibition” value is -6% and the Z score came out at 1.14.
Consider `Cc1ccc2nc3c(cc2c1)CCN3S(=O)(=O)c1ccc(F)cc1`, for which the “% Inhibition” value amounted to 4% and the Z score was -0.41.
